Laboratory results: PubChem BioAssay AID504845 (National Center for Advancing Translational Sciences (NCATS), 2011)
Screen size: about 390,000 compounds; about 150 (0.038%) were called active. Inconclusive results, whose numbers are uncertain, are shown with a selection of clear calls. Calls come from the whole dose curve; as a rule, active = well fitted inhibition curve with a large enough effect; inconclusive = small, poorly fitted or top-dose-only effect; inactive = no such curve, though single readings can be large or run the other way. Potencies of inconclusive entries are doubtful fits and often do not repeat.

target: Regulator of G-protein signaling 4 (Homo sapiens) (UniProt P49798); assay: Inhibitors of Regulator of G Protein Signaling (RGS) 4: qHTS; conditions: Transcreener GDP fluorescence polarization, RGS4-accelerated GTP hydrolysis; series mostly up to 114 µM; note: nearly all actives have a fitted effect of over 75% in size
UniProt P49798, sequence (P49798 whole entry, looked up): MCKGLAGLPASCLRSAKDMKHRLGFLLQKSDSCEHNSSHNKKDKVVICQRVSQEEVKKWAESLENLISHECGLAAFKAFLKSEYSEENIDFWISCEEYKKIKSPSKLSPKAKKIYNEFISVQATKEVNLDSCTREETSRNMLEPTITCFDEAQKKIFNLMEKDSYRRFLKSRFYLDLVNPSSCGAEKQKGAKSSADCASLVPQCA
Summary of the method: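 MLSMR compounds (23 nl, pin-transferred) preincubated 10 min at room temperature with a 500nM (2x) first reagent, then RGS4 at 900nM (2x) plus Transcreener GDP mix added; fluorescence polarization (620/688 nm) read before and after 90 min at 30 °C.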
% is set by controls: 0 for no effect and ±100 for the full control effect; potency is the fitted concentration of half-maximal effect; tags give direction and shape of the fitted curve.

Row | SMILES | Potency | activity change, negative = inhibition
1 | CCN(C(C)=O)c1cnc(C=NNC(N)=S)c2ccccc12 | inactive | 
2 | CN(C)c1nc(-c2cn(CCC#N)c3ccccc23)cs1 | inconclusive: 28.2 µM [inhibitor, full curve, poor fit] | 
3 | CC(=O)c1cccc(NC(=O)COc2ccc3oc(=O)cc(C)c3c2)c1 | inconclusive: 79.4 µM [inhibitor, single point] | 
4 | Cc1ccc2[nH]c(=O)c(CN(CCO)Cc3nnnn3CCc3ccccc3)cc2c1 | inconclusive: 79.4 µM [inhibitor, partial curve, poor fit] | 
5 | O=[N+]([O-])c1ccc(N/N=C/c2ccc(OCc3cccc4ccccc34)cc2)nc1 | inactive | 
6 | Cc1ccc(C(=O)N/N=C(\CC(C)C)c2ccccc2)cc1 | inactive | 
7 | N#CCC(=O)N/N=C/c1coc2ccccc2c1=O | inconclusive: 17.8 µM [inhibitor, partial curve, poor fit] | 
8 | CC1=C(C(=O)Nc2cc(Cl)ccc2C)C(c2ccccc2F)n2ncnc2N1 (stereo not given) | inactive | 
9 | COc1cccc(C(=O)N(Cc2ccc(N(C)C)cc2)Cc2ccco2)c1 | inactive | 
10 | Cn1c(NCc2ccco2)nc2c1c(=O)n(Cc1ccc(Cl)cc1)c(=O)n2C | inactive | 
11 | O=Cc1ccc(OCCCOc2cccc3cccnc23)cc1 | inactive | 
12 | CC1CCc2c(sc(NC(=O)/C=C/c3cccs3)c2C(=O)O)C1 (stereo not given) | inactive | 
13 | Cc1cc(O)ccc1Nc1nc(-c2sc(N)nc2C)cs1 | inconclusive: 50.1 µM [inhibitor, partial curve, poor fit] | 
14 | C=CCn1cc(/C=N/NC(=O)COc2cccc3cccnc23)c2ccccc21 | inconclusive: 89.1 µM [inhibitor, single point] | 
15 | COc1ccc2cc3cc(C(=O)NCc4cccnc4)oc3nc2c1 | inconclusive: 89.1 µM [inhibitor, single point] | 
16 | CCCOc1ccc(/C=N/Nc2ccccn2)cc1OC | inactive | 
17 | CCC(C)(C)NC(=O)C(Sc1ccccc1)c1ccccc1 (stereo not given) | inconclusive: 89.1 µM [inhibitor, single point] | 
18 | COc1ccc(OC)c(NC(=O)c2cc(-c3cc(C)ccc3O)n[nH]2)c1 | inconclusive: 17.8 µM [inhibitor, full curve, poor fit] | 
19 | NC(=O)/C(=C/c1ccco1)C(N)=S | inconclusive: 79.4 µM [inhibitor, partial curve, poor fit] | 
20 | Cn1cccc1Cc1nnc(SCC(=O)Nc2cccc(Cl)c2)n1-c1ccc(F)cc1 | inconclusive: 35.5 µM [inhibitor, partial curve, poor fit] | 
21 | Cc1cccc(NC(=O)c2cccc(N3C(=O)C4C5C=CC(C6CC56)C4C3=O)c2)c1 (stereo not given) | inconclusive: 79.4 µM [inhibitor, partial curve, poor fit] | 
22 | C/C(=C\C(=O)c1c(O)cc(C)oc1=O)N(C)C | inconclusive: 79.4 µM [inhibitor, partial curve, poor fit] | 
23 | COc1ccc(NC(=O)Nc2cccc3c2O[C@H](CN(C)C(=O)Nc2ccc(OC)cc2)[C@@H](C)CN([C@H](C)CO)C3=O)cc1 | inactive | 
24 | CC(=O)Nc1ccc(S(=O)(=O)N2CCC(N3CCN(Cc4ccc(C)cc4)C(=O)C3=O)CC2)cc1 | inconclusive: 35.5 µM [inhibitor, full curve, poor fit] | 

Row | SMILES | Potency | activity change, negative = inhibition
25 | CC(=O)Oc1cc2c(cc1Cl)C(c1cccs1)CC1(CC(C)(C)NC(=S)N1)O2 (stereo not given) | inconclusive: 63.1 µM [inhibitor, partial curve, poor fit] | 
26 | CCCc1cc(=O)[nH]c(SCC(=O)Nc2sc3c(c2C#N)CCC(C)C3)n1 (stereo not given) | inconclusive: 100 µM [inhibitor, partial curve, poor fit] | 
27 | CN(C)c1ccc(C(=O)Nc2sc(Nc3ccccc3)nc2C(N)=O)cc1 | inconclusive: 39.8 µM [inhibitor, partial curve, poor fit] | 
28 | O=C(CC1(O)C(=O)N(CCc2ccccc2)c2ccccc21)c1ccco1 (stereo not given) | inactive | 
29 | COc1cc(CN2CC(=O)N(c3cc(Cl)ccc3C)C2=S)cc(OC)c1OC | inconclusive: 44.7 µM [inhibitor, partial curve, poor fit] | 
30 | Cc1nccn1CC(O)Cn1c2ccccc2c2ccccc21 (stereo not given) | inactive | 
31 | CCn1cc(C(=O)OCC(=O)c2cc(C)n(-c3ccccc3F)c2C)c(=O)c2ccc(C)nc21 | inconclusive: 50.1 µM [inhibitor, partial curve, poor fit] | 
32 | Cn1cccc1Cc1nnc(SCC(=O)NCC2CCCO2)n1C (stereo not given) | inconclusive: 79.4 µM [inhibitor, partial curve, poor fit] | 
33 | Cc1ccc(NC(=O)c2cc(S(=O)(=O)N3CCCCC3)cs2)cc1 | inactive | 
34 | Cc1ccn2c(/C=N/OCc3cccc(F)c3)c(-c3ccc(Cl)cc3)nc2c1 |  | inactive: -0.672% [at 11.4 µM]
35 | c1csc(C2Nc3cccc4cccc(c34)N2)c1 | inconclusive: 70.8 µM [inhibitor, partial curve, poor fit] | 
36 | COc1cc2c(cc1OC)CN(c1ccc(C(F)(F)F)cn1)CC2 | inconclusive: 79.4 µM [inhibitor, partial curve, poor fit] | 
37 | COc1cccc(CCNC(=O)c2ccc(Cn3c(SCc4ccccc4)nc4cccnc43)cc2)c1 | inactive | 
38 | C(CNC1C2CC3CC(C2)CC1C3)CN1CCOCC1 (stereo not given) | inactive | 
39 | CNS(=O)(=O)c1ccc(NC(=O)C2CC(=O)N(c3ccc(Cl)cc3)C2)cc1 (stereo not given) | inconclusive: 44.7 µM [inhibitor, partial curve, poor fit] | 
40 | COc1ccccc1-n1cnnc1SCC(=O)Nc1ncc(Cl)cc1Cl | inconclusive: 100 µM [inhibitor, partial curve, poor fit] | 
41 | COc1ccc(NS(=O)(=O)c2ccc(NC(=O)c3ccc(Br)cc3)cc2)nn1 | inactive | 
42 | CCOc1ccccc1OCc1nn2c(COc3ccccc3)nnc2s1 | inconclusive: 50.1 µM [inhibitor, partial curve, poor fit] | 
43 | Cc1ccc(-c2csc(NC(=O)c3ccc(-c4ccccc4)cc3)n2)o1 | inconclusive: 31.6 µM [inhibitor, full curve, poor fit] | 
44 | O=C1CCCCCN1Sc1ccccc1 | inconclusive: 35.5 µM [inhibitor, full curve, poor fit] | 
45 | Cc1cc(C)c(NC(=O)Cn2c(=O)n(CCc3ccccc3)c(=O)c3ccccc32)c(C)c1 | inactive | 
46 | CC(C)(C)c1ccc(C(=O)NC(=S)Nc2sc3c(c2C#N)CCC3)cc1 | inconclusive: 56.2 µM [inhibitor, partial curve, poor fit] | 
47 | O=C(NC(=S)Nn1cnnc1)c1ccccc1Br | inconclusive: 44.7 µM [inhibitor, partial curve, poor fit] | 
48 | Cc1ccc(C2=Nc3ccccc3N(CC(=O)Nc3ccccc3C)C(=O)C2)cc1C | inactive | 

Row | SMILES | Potency | activity change, negative = inhibition
49 | Cc1c(C(=O)N2CCOCC2)c(S(=O)(=O)Nc2ccccc2)c(C)n1C | inactive | 
50 | CC(C)(C)C(=O)NC(NC(=S)Nc1sc2c(c1C#N)CCCC2)C(Cl)(Cl)Cl (stereo not given) | inconclusive: 100 µM [inhibitor, partial curve, poor fit] | 
51 | O=C(NCc1ccccc1)C1(C(F)(F)F)CC(CCCO)CCCO1 (stereo not given) | inactive | 
52 | Cc1ccc(N(C)S(=O)(=O)c2ccc3c(c2)C(C)(C)C(=O)N3C)cc1C | inactive | 
53 | O=C1c2ccc(Oc3cccc([N+](=O)[O-])c3)cc2C(=O)N1c1ccccn1 | inconclusive: 35.5 µM [inhibitor, partial curve, poor fit] | 
54 | COc1ccc(-c2cc(C(=O)N(C)CC(=O)Nc3ccccc3Br)c3ccccc3n2)cc1OC | inactive | 
55 | COc1ccc(CC(=O)O/N=C(\N)c2ccc(OC)cc2)cc1 | inactive | 
56 | Cc1ccc(/C(N)=N/OC(=O)c2cccs2)cc1 | inactive | 
57 | Cc1ccc(NC(=O)C2CCN(S(=O)(=O)c3cccs3)CC2)c(O)c1 | inconclusive: 89.1 µM [inhibitor, partial curve, poor fit] | 
58 | O=C(NCCc1ccccc1)C1CCN(S(=O)(=O)c2cccs2)CC1 | inactive | 
59 | NC12CC3CC(CC(C3)C1)C2 | inconclusive: 0.843 µM [inhibitor, full curve, poor fit] | 
60 | O=c1oc2ccccc2c2c1ncn2CCN1CCOCC1 | inconclusive: 79.4 µM [inhibitor, single point] | 
61 | CCn1c(=O)c2c(n3c(=S)[nH]nc13)-c1ccccc1CC21CCCCC1 | inconclusive: 79.4 µM [inhibitor, partial curve, poor fit] | 
62 | S=c1[nH]nc(-c2ccco2)n1/N=C/c1ccc(Cl)cc1Cl | inconclusive: 89.1 µM [inhibitor, single point] | 
63 | O=C1C=CC(=O)N1c1ccc2c(c1)Cc1cc(F)ccc1-2 | inconclusive: 39.8 µM [inhibitor, partial curve, poor fit] | 
64 | CC(Oc1ccc(F)cc1)C(=O)Nc1ccc2ccccc2c1 (stereo not given) | inactive | 
65 | COc1ccc(/C=C/C(=O)c2cc(Br)ccc(=O)c2O)cc1 | inconclusive: 28.2 µM [inhibitor, partial curve, poor fit] | 
66 | Cc1cccc(Cc2ccc(Cl)nn2)c1 | inactive | 
67 | CCCN1CCN(c2ncc3c(n2)CCN(Cc2ccc(OC)c(OC)c2OC)C3)CC1 | inactive | 
68 | Cc1cc(NC(=O)CSc2nc(-c3ccco3)cc(C(F)(F)F)n2)no1 | inactive | 
69 | COc1ccc(CN2CCN(S(=O)(=O)c3ccc(NC(C)=O)cc3)CC2)cc1OC | inactive | 
70 | CS(=O)(=O)N1CCC(C(=O)Nc2cc(Cl)cc(Cl)c2)CC1 | inconclusive: 50.1 µM [inhibitor, partial curve, poor fit] | 
